Measurements published in the supplement of paper PMC3334620.
In all, about 33,000 sequences were measured (“E-score (-0.5 to 0.5)”: median about -0.013, highest 2% from about 0.3 on). The list shows a part of the results.

Target: T1, Msn1 (UniProt P22148)
T1 sequence: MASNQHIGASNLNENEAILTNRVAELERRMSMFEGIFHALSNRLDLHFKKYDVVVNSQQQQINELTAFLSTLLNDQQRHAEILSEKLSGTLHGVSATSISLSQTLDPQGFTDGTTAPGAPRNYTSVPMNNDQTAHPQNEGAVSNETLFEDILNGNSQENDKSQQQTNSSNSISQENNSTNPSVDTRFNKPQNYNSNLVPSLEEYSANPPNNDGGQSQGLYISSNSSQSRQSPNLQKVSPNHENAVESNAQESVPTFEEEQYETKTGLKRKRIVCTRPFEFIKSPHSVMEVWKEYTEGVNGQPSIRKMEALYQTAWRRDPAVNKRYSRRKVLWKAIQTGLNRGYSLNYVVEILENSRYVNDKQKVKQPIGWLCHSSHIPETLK
Assay: PBM E-score (8-mer binding enrichment) (E-score (-0.5 to 0.5)); higher = stronger / more preferred TF binding; most listed sequences are background and not binding sites
Settings: protein concentration: 200 nM; construct: GST-full length
Outline: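 Each ungapped eight-base word and its reverse complement, pooled, received an E-score from the Universal PBM Analysis Suite. Underlying scans, normalised with masliner, recorded fluorescent anti-GST bound to GST-tagged yeast transcription factors. These were applied at about 100-200 nM to universal all-10-mer Agilent arrays double-stranded by primer extension.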

Sequence | PBM E-score
CGAACTAC | 0.0623
ACTATAAC | 0.0074
AGAGGTCC | -0.00313
CTGAGAGC | -0.0928
GGAACACA | -0.0311
ACCCCCGG | -0.318
AAGAGCGC | 0.172
CGTTAAAA | -0.0648
CGGGTAAG | -0.135
ACTATCCC | -0.276
CATGGAGC | -0.204
GCCGTATA | 0.215
GCACCTCC | -0.278
CTTGGAGC | -0.118
CGGCCGTC | -0.0413
CATCCGAA | 0.176
CACTGCCC | -0.193
AGGCGGCG | -0.174
AAAGCGGA | 0.0463
TCACCAGA | -0.106
GGGTAGCA | -0.23
CCCCGCTA | -0.113
GGTCGTTA | -0.021
GCCCAATA | -0.022
ATTGTCAC | 0.297

Sequence | PBM E-score
AGAGACCG | -0.0755
CCTAACCA | -0.023
AGCGACGA | 0.0578
TACCATAA | 0.129
GGGACGAC | 0.115
TACAATAA | 0.214
ATGTTGCA | -0.0862
AAAGGTCA | 0.0381
GTGCCACA | -0.149
GAGTAGCC | -0.177
TCCTTTAA | -0.0768
CCCGCGTC | -0.032
CGAGTGAC | 0.0781
AATGTGCC | -0.101
GGGAGACA | 0.249
CCGCGAGC | -0.0826
GCGTTACC | -0.246
GTGTCGCA | 0.0382
GCGACACA | 0.0733
ATCGTAGG | 0.0259
CACCAGTC | -0.274
ACTGTGGG | -0.102
ATATAATG | 0.107
CGTAGATA | -0.0907
CCGGGCAA | 0.17

Sequence | PBM E-score
AGATTGCA | -0.0645
AAGGGGGC | -0.354
AGTGAAGC | -0.0638
GGTAAACA | 0.123
AGCTGAAC | -0.0193
AAATCTGG | 0.182
AGTTCCCC | -0.186
TACTCGAA | -0.00961
AAAGCATC | -0.0199
AAGTAAGG | 0.0175
ATGGGGAA | 0.0424
GTGATCAC | -0.107
AATCGACC | 0.0452
AATGGGTA | 0.0862
GCCCCTCC | -0.362
AGGACTTA | 0.36
CCTGCATA | -0.118
CCCAGTAC | -0.157
AACGGTAT | 0.0113
CGCGGATC | -0.216
CGCACAGC | -0.0276
CGTCATAC | 0.19
GAGAGAGA | -0.104
GCCTTTAA | 0.0396
AATTCGGC | -0.133

Sequence | PBM E-score
CTGCGCGA | -0.108
ATATGTGG | 0.0596
AGACAACT | 0.147
GCTTCGAA | 0.00535
CTTCAGGC | -0.0893
GTGTAAGA | 0.0844
GGAACGAA | 0.0279
ACCCCTTA | -0.166
CTACCGTC | -0.0251
CTAGAGAG | 0.0247
GAGGTGTA | -0.208
CAAGGGTG | -0.138
ATCATTCA | 0.176
CGATTAGC | -0.0473
AACGGATC | 0.0584
CGCTAGAG | -0.177
GCGGATTA | -0.063
TAAGGTAA | 0.113
GCTGCAGC | -0.113
CGGGTTAC | 0.0927
ACTTTGCT | -0.0444
TAAGTATA | 0.25
GCGAGTAA | 0.172
TCCCCAGA | -0.107
ATAGACCA | -0.0849

Sequence | PBM E-score
ATCACCGA | 0.148
CATTGCGC | 0.0278
AATTCCCT | 0.0545
GGCACCAC | -0.138
AACTGTGC | -0.0194
CAAGCTCC | -0.195
TCAGAACA | -0.00857
AAGGAAGG | -0.154
GCTGTCAA | -0.0112
CACTAGTC | -0.0105
GTGCACTA | 0.0251
ACCAGTGC | -0.223
CGGTAAGA | 0.00325
AAGTGAGT | -0.0599
CCCACGGG | -0.185
AGTAATAC | -0.0836
AGTGAATA | 0.00262
GGCGCAAC | -0.158
AAAGTAAC | 0.097
ACCTCTAG | 0.0454
ACGCCCAA | -0.0889
CGGCTGGA | -0.126
ATATTGCC | 0.0437
AACACACC | 0.0499
AGTACATC | 0.131

Sequence | PBM E-score
ACAAAGTA | 0.172
AGGCGCCC | -0.2
CGACAGTA | -0.127
AGTAAGAT | 0.0927
AACTCTCA | 0.0216
CTCCTGGC | -0.137
GACTGGAA | -0.107
CTTACGGA | -0.0601
CGGAGAAG | -0.174
CCCACAAA | 0.188
AAATAGTG | 0.145
CATCAAAC | -0.0523
GGGTTGGA | -0.123
CAGTGGGA | -0.0388
AATCGGAT | 0.226
CCAGTCGA | -0.14
AGTCTTCG | 0.0625
GGGAACGA | -0.121
ACAGACCT | -0.0275
GATCTACA | -0.0461
AAAATTCA | 0.308
CAAAGGTC | -0.128
ACGGTTGA | -0.0648
AGTACCCG | 0.0325
TCTACCAA | 0.0596

Sequence | PBM E-score
AGGGCAGA | -0.165
ACCCTGGA | -0.225
ATCGAGCG | -0.0861
CCCTGTCA | -0.0892
AATGCAAT | -0.162
GGTTGTTA | 0.222
CGAACCAG | 0.0199
ACGGGTGC | -0.0788
GCTGCCTA | -0.156
AAATCTAC | 0.0823
CGCCTTTA | -0.0643
CAATTATA | 0.116
CGGTAGTA | 0.0735
GCTTGTGA | -0.196
CCAGTCTA | -0.127
CGGCACGA | 0.145
ACACCTAG | 0.00645
ACCTGTCA | 0.00165
CACCTATG | -0.057
CATGTTCC | 0.0014
GCGTGCTA | -0.252
CTGCTCTA | 0.041
